About 220 (0.56%) of roughly 39,000 compounds showed activity. This is one part of the list.
Each compound was assayed on Escherichia coli K-12 BW25113 (assay: relative growth (OD600 normalised to plate interquartile mean) (fraction); higher = less growth inhibition, active = 0.2 or less). Conditions: 50 µM; LB; incubation time: overnight (16-24 h).
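Also: static incubation at 37 °C against the wild-type strain, values averaged over two biological replicates.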

| SMILES | relative growth |
| --- | --- |
| C[C@@H]1CCCCO[C@@H](CN(C)C(=O)Nc2cccc3ccccc23)[C@H](C)CN([C@H](C)CO)C(=O)c2cc(NS(=O)(=O)c3cn(C)cn3)ccc2O1 | inactive: 0.994 |
| CN1C2CCCC1CC(NC(=O)c1nn(C)c3ccccc13)C2.Cl (stereo not drawn) | inactive: 1.07 |
| C[C@@H]1CN([C@H](C)CO)C(=O)c2cc(NS(=O)(=O)c3ccc(Cl)cc3)ccc2O[C@@H](C)CCCCO[C@@H]1CN(C)Cc1ccccc1 | inactive: 0.965 |
| C[C@H]1CN([C@@H](C)CO)S(=O)(=O)c2ccc(-c3cncnc3)cc2O[C@H]1CN(C)C(=O)C1CCCCC1 | inactive: 0.985 |
| NC(=O)CCNCc1ccccc1 | inactive: 1.01 |
| CN1CC(=O)N2C(Cc3c([nH]c4ccccc34)C2c2ccc3c(c2)OCO3)C1=O (stereo not drawn) | inactive: 1.13 |
| C[C@@H]1CN([C@H](C)CO)S(=O)(=O)c2ccc(C#Cc3ccncc3)cc2O[C@H]1CN(C)C(=O)Nc1ccc2c(c1)OCO2 | inactive: 1.02 |
| C[C@@H]1CN([C@H](C)CO)C(=O)Cc2cc(NC(=O)Nc3ccc(C(F)(F)F)cc3)ccc2O[C@H]1CN(C)S(=O)(=O)c1ccc(Cl)cc1 | inactive: 1.02 |
| COc1ccc(S(=O)(=O)Nc2ccc3c(c2)CC(=O)N([C@@H](C)CO)C[C@H](C)[C@@H](CN(C)Cc2ccncc2)O3)cc1 | inactive: 1.02 |
| COc1cccc(NC(=O)N(C)C[C@@H]2Oc3ncc(C#Cc4ccncc4)cc3C(=O)N([C@@H](C)CO)C[C@@H]2C)c1 | inactive: 0.979 |
| CC1(C)OC(=O)C2(C(=O)O1)[C@@H](c1ccc(-c3cccc(Br)c3)cc1)CC(=O)C[C@H]2c1ccccc1 | inactive: 1 |
| C[C@H]1CC=CC[C@@H](c2ccc3c(c2)OCO3)NC(=O)[C@H](Cc2ccccc2)N(C)C(=O)c2ccccc2O1 | inactive: 1.05 |
| C[C@H]1CN([C@@H](C)CO)C(=O)Cc2cc(NS(=O)(=O)c3cn(C)cn3)ccc2O[C@@H]1CN(C)S(=O)(=O)c1cccs1 | inactive: 0.997 |
| COc1cc(C=CC(=O)N2CCC=CC2=O)cc(OC)c1OC | inactive: 1.09 |
| C[C@@H]1CCCCO[C@H](CN(C)Cc2ccc(C(F)(F)F)cc2)[C@@H](C)CN([C@@H](C)CO)C(=O)c2cc(NC(=O)Nc3ccc4c(c3)OCO4)ccc2O1 | inactive: 1.05 |
| CCCSc1nc(N[C@@H]2C[C@H]2c2ccc(F)c(F)c2)c2nnn([C@@H]3C[C@H](OCCO)[C@@H](O)[C@H]3O)c2n1 | inactive: 0.736 |
| CCN1C(=O)S[C@@H](CC(=O)O)C1=O | inactive: 1.03 |
| C[N+](C)(C)CCOC(N)=O.[Cl-] | inactive: 1.12 |
